Source: article PMC4336329 (PLoS ONE, 2015)
In all, about 310,000 compounds went through this assay and about 2,200 (0.71%) showed an effect of 50% or more. The effect is printed as a negative number. Some of the results follow.

Molecular target: human ether-à-go-go-related gene (hERG) potassium channel (human, UniProt Q12809)
Experiment: primary screen, population patch clamp on CHO cells stably expressing hERG

human ether-à-go-go-related gene (hERG) potassium channel, sequence (Q12809 whole entry, looked up): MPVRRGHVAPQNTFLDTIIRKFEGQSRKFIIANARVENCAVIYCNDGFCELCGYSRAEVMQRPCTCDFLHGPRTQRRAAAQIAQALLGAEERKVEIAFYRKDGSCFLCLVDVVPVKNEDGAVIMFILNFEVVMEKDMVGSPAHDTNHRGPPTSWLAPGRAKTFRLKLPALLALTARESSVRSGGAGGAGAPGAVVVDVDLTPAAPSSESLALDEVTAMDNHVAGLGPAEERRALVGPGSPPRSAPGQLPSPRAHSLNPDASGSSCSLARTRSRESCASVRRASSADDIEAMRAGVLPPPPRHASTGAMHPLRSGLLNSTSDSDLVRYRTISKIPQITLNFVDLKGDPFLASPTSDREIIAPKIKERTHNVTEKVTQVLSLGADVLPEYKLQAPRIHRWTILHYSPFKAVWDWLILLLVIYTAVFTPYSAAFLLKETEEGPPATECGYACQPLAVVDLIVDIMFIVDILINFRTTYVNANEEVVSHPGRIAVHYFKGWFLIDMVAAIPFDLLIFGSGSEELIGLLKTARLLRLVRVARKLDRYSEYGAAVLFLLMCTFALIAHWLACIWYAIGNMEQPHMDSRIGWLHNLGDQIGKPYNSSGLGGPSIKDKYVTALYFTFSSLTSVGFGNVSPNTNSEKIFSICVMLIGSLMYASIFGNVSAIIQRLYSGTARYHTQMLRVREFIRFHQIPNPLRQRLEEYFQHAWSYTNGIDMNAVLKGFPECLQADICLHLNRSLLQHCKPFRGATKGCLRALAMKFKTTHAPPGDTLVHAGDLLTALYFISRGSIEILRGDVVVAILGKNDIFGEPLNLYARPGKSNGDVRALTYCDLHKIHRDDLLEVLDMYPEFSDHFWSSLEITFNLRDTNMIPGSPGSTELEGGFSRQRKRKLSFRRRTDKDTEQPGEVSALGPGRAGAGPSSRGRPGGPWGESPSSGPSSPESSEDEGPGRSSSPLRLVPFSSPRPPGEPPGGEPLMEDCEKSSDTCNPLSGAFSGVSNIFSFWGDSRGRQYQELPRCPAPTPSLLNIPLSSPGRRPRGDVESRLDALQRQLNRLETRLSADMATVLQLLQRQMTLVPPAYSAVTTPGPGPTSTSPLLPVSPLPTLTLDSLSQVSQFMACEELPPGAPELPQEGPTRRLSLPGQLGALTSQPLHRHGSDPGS

Row | Compound | hERG current change (%, negative = inhibition) at 1uM [%]
1 | Cc1onc(-c2ccccc2)c1C(=O)N/N=C/c1ccc(Br)cc1 | 7.22
2 | O=C(Nc1ccc2c(c1)OCO2)C1CCCN(S(=O)(=O)c2cccs2)C1 (centres unmarked) | 10.5
3 | O=Cc1c(N2CCN(c3cccc(Cl)c3)CC2)nc2ccccn2c1=O | -4.85
4 | CCOc1cc(Cl)c(NC(=O)c2ccco2)cc1OCC | 5.8
5 | CCc1ccc(CCC(=O)Nc2sc3c(c2C#N)CCCC3)o1 | 9.56
6 | COc1cc2nc(SCc3c(C)noc3C)n(CCC3=CCCCC3)c(=O)c2cc1OC | 19.1
7 | Cc1cc(N2CCN(c3ccccc3)CC2)nc(-c2ccccc2O)n1 | 1.33
8 | NS(=O)(=O)c1ccc(NC(=O)CSc2nnc(C3CC3)n2C2CC2)cc1 | 13
9 | CN1C(c2ccccc2)=NO[C@]1(C)c1ccccc1 | 6.69
10 | CC(C)CC(=O)Nc1ccc(C(=O)Cn2nc(C(=O)O)c3ccccc3c2=O)cc1 | -0.503
11 | CN(C)c1ccc(CN(C(=O)COc2ccccc2)C2CCS(=O)(=O)C2)cc1 (centres unmarked) | 5.76
12 | c1ccc(Nc2ncnc3sccc23)cc1 | 7.31
13 | CCOc1ccc(N2C(=O)c3ccccc3C2=O)cc1 | 11.1
14 | N/C(=N\OC(=O)c1ccc(F)cc1)c1ccc(Br)cc1 | 12.6
15 | CCOC(=O)C1CCN(C(=O)CC(NS(=O)(=O)c2ccc(OC)cc2)C(C)C)CC1 (centres unmarked) | 5.27
16 | Cc1ccc(S(=O)(=O)N2CCCC(C(=O)NCCC3=CCCCC3)C2)cc1 (centres unmarked) | 0.432
17 | O=C(Nc1cccc2ncccc12)c1ccco1 | 20.1
18 | COc1cc(NC(=O)C2CCN(S(=O)(=O)c3cccc4nonc34)CC2)cc(OC)c1 | 11.8
19 | CS(=O)(=O)N1N=C(c2ccco2)CC1c1ccco1 (centres unmarked) | 9.6
20 | COc1c(N2CCN(C(=S)Nc3ccccc3F)C(C)C2)c(F)cc2c(=O)c(C(=O)O)cn(C3CC3)c12 (centres unmarked) | 12.7
21 | Nc1nnc(Cc2cccc(Br)c2)s1 | 12
22 | O=C(Cn1nc(-c2ccccc2)c2ccccc2c1=O)NCCO | 10.2
23 | CCC(CO)N=CC1=C(O)C(C(=O)c2ccccc2)CCC1=O (centres unmarked) | 7.56

Row | Compound | hERG current change (%, negative = inhibition) at 1uM [%]
24 | CCOC(=O)c1cc([N+](=O)[O-])sc1NC(=O)c1ccc(S(=O)(=O)N2CC3(C)CC2CC(C)(C)C3)cc1 (centres unmarked) | 3.1
25 | Cc1cccc(OCC(O)Cn2c(=N)n(Cc3ccccc3)c3ccccc32)c1.Cl (centres unmarked) | -16.4
26 | Cc1ccc[n+](CC(=O)c2ccc(Br)cc2)c1.[Br-] | 10.3
27 | CCCCc1nc2cc(C(=O)NCCc3cnn(C)c3)ccc2o1 | 15.7
28 | O=C(/C=C/c1ccc(Cl)cc1Cl)c1nc2ccccc2[nH]1 | 14.4
29 | O=C(CCCOc1ccccc1)N1CCN(c2ccccn2)CC1 | 4.13
30 | CCOc1ccc(CCNC(=O)CN2C(=O)c3cccnc3Oc3ccc(Cl)cc32)cc1 | 7.57
31 | Cc1cccc(-c2nc(CS(=O)CC(=O)NC3CCCCC3)c(C)o2)c1 (centres unmarked) | 10.5
32 | CCN(CC(=O)NC(C)(C)C)C(=O)c1ccc2c(c1)S(=O)(=O)c1ccccc1C2=O | 15.1
33 | CCCN=C1N/C(=C\c2ccco2)C(=O)N1c1ccccc1 | 17.3
34 | C/C(=N\NC(=O)c1ccccc1)C1C2C=CC(C2)C1(C)C (centres unmarked) | 13.7
35 | O=C(NCC1CCCO1)C1CCN(C2CCN(Cc3cccs3)CC2)CC1 (centres unmarked) | -41.4
36 | c1ccc(N2CCN(Cc3ccnc4ccccc34)CC2)cc1 | 5.27
37 | Cl.O=C1CN=C(Nc2cccc(C(F)(F)F)c2)N1C1CCCC1 | 8.43
38 | O=C(O)c1ccc(S(=O)(=O)c2ccccc2C(=O)O)c([N+](=O)[O-])c1 | 21.7
39 | O=C(CSc1n[nH]c(=O)[nH]c1=O)c1ccc(Cl)cc1Cl | 4.94
40 | O=C(NNC(=O)c1cc(-c2ccccc2)n(-c2ccccc2)n1)c1cccc([N+](=O)[O-])c1 | 5.31
41 | CCO.CCSc1nc2ccccc2c(=O)n1-c1c(C)n(C)n(-c2ccccc2)c1=O | 8.37
42 | CCCCCNc1nc(-c2ccccc2)cs1 | 16.5
43 | CCc1ccc(S(=O)(=O)Nc2ccc(-c3nc4cccnc4s3)cc2)s1 | 9.6
44 | COc1ccc(C(=O)CSc2nnc(Cc3ccccc3)o2)cc1 | 13.3
45 | C=CCNC(=O)c1ccccc1NS(=O)(=O)c1ccccc1 | 0.158
46 | CC(C)C(O)(C#CCN1CCCCCC1)c1ccccc1.Cl (centres unmarked) | 6.24

Row | Compound | hERG current change (%, negative = inhibition) at 1uM [%]
47 | Cc1ccc(-n2nc3c(c2NC(=O)c2ccco2)CS(=O)(=O)C3)c(C)c1 | 12.2
48 | CC(C)(C)NC(=O)[C@@H]1C[C@@H]2CCCC[C@@H]2CN1C[C@@H](O)[C@H](Cc1ccccc1)NC(=O)[C@H](CC(N)=O)NC(=O)c1ccc2ccccc2n1 | 12.2
49 | CCc1nc(SCC(=O)Nc2nnc(CC)s2)c2c(C)c(C)sc2n1 | 8.46
50 | CCC(C(=O)O)n1nnc(-c2ccc(OCc3ccccc3)c(OC)c2)n1 (centres unmarked) | 11.3
51 | CC(C(=O)Nc1ccc(Cl)cc1)N(C)Cc1cccs1 (centres unmarked) | 17.4
52 | Cc1nn(-c2ccccc2)c(C)c1/C=C1\C(=O)N(C)C(=S)N1C | 2.94
53 | O=C(N/N=C/c1ccco1)c1cc([N+](=O)[O-])cc([N+](=O)[O-])c1 | 4.49
54 | O=Cc1ccc(C(=O)OCC(=O)Nc2ccc(F)cc2F)cc1 | 15
55 | Cc1ccc(CN2[C@@H]3c4ccccc4C[C@@H]3OCCS2(=O)=O)cc1 | 14.3
56 | CCOC(=O)c1c(S(=O)(=O)NCC(=O)N2CCN(c3ccccc3OC)CC2)c(C)n(C)c1C | 13.3
57 | CC(=O)NC(Cc1ccc(N(CCCl)CCCl)cc1)C(=O)NCC(=O)NCC(=O)O (centres unmarked) | 9.88
58 | Nc1ccc2nc(SCc3ccc([N+](=O)[O-])cc3)sc2c1 | -5.18
59 | O=C(COC(=O)/C=C/c1ccc(C(F)(F)F)cc1)NC1CC1 | 4.17
60 | CCCCNC(=S)N/N=C1\CCCCc2ccccc21 | -8.7
61 | CCn1c(SCC(=O)Nc2nc(C)c(C)s2)nnc1-c1cccs1 | -62.5
62 | CC(C)C(=O)Nc1ccc(C(=O)NNC(=O)c2cccs2)cc1 | 7.81
63 | O=C(Cc1coc2ccc3ccccc3c12)NCc1cccs1 | 12.2
64 | CC(C)(C)C1CCC(OCC(O)CN2CCN(c3ccccn3)CC2)CC1.Cl (centres unmarked) | 9.29
65 | COc1ccc(OC)c(S(=O)(=O)Nc2c(C)n(C)n(-c3ccccc3)c2=O)c1 | 3.33
66 | CS(=O)(=O)Nc1ccc2c(c1)C(=O)OC2 | 18
67 | O=C(c1ccccc1)N(Cc1ccc(F)cc1)C1CCS(=O)(=O)C1 (centres unmarked) | 7.52
68 | COc1ccc(CCN(C)C(=O)c2ccc(S(=O)(=O)Nc3ccccc3F)cc2)cc1OC | 10.7
69 | CCc1noc(C)c1C(=O)N(CC)CC(=O)NCc1ccc(Cl)cc1 | 8.68

Row | Compound | hERG current change (%, negative = inhibition) at 1uM [%]
70 | Cc1ccc(C)c(NC(=O)CSc2sc3c(O)cc(=O)[nH]c3c2C#N)c1 | 13.9
71 | O=C(COC(=O)CNC(=O)c1ccccc1)Nc1cccc(Br)c1 | 11.6
72 | COCCNc1ccc([N+](=O)[O-])cc1C(=O)Nc1cccc(C)n1 | -32.5
73 | O=C1Nc2ccccc2N=C(c2ccccc2)c2ccccc21 | 11.1
74 | COc1ccc(N=Cc2cc(Cl)ccc2O)cc1Cl | 7.38
75 | Cc1c(CCCC(=O)O)sc(N)c1C(=O)c1cccc(C(F)(F)F)c1 | 16.4
76 | CC(=O)Nc1nc(SCCCc2ccccc2)n[nH]1 | -17.7
77 | O=C(Nc1cccnc1)C1(c2ccccc2)CCCC1 | 7.53
78 | CSc1sccc1/C=N/O | 16.1
79 | CC(C)Oc1ccccc1OCCN(C)C.O=C(O)C(=O)O | 4.04
80 | CCC(=O)Nc1cccc(NC(=O)c2cccc([N+](=O)[O-])c2C)c1 | 4.66
81 | COc1ccnc2c1c(=O)n(Cc1cccc(Cl)c1)c(=O)n2C | 9.1
82 | CCc1cc(-c2n[nH]c(C)c2-c2nc(C)cs2)c(O)cc1OC | 10.9
83 | O=C(NCCc1ccccc1)C1CCC(Cn2c(=O)c3ccccc3n(Cc3cccnc3)c2=O)CC1 (centres unmarked) | 4.89
84 | CC(=O)NC(Cc1ccc(F)cc1)C(=O)NC1CCN(C(=O)Nc2ccc(F)cc2)CC1 (centres unmarked) | 10.6
85 | COc1cc(CCC(=O)OCC(=O)Nc2cccc(S(=O)(=O)N(C)C)c2)cc(OC)c1OC | -5.13
86 | COc1ccc(OCC(=O)NC2CCCCCCC2)cc1 | 8.18
87 | COC(C(=O)Nc1ccc(F)cc1F)c1ccccc1 (centres unmarked) | 3.37
88 | Cc1ccc(NC(=O)c2cc(-c3ccccc3)n(CCCN3CCOCC3)c2C)cc1 | 4.23
89 | COc1ccc(NC(=O)[C@H](C)NC(=O)C2CCN(S(=O)(=O)c3ccc(C)cc3)CC2)cc1 | 7.16
